Results: the supplement of paper PMC4604168 (melanoma cell lines)
The other results are listed elsewhere or left out. Repeats are few or missing, and single values can be far off.

How the values were obtained:
Experiment in all cases: cell count relative to DMSO control; melanoma cells; higher = more viable cells
Conditions in all cases: library dose: low library concentration; 72 h
COLO792 = test system: COLO792
COLO800 = test system: COLO800
COLO829 = test system: COLO829
G361 = test system: G361
IPC-298 = test system: IPC-298
IST-MEL1 = test system: IST-MEL1
LB2518-MEL = test system: LB2518-MEL
LOXIMVI = test system: LOXIMVI
MEL-HO = test system: MEL-HO
MZ2-MEL = test system: MZ2-MEL
MeWo = test system: MeWo
RPMI7951 = test system: RPMI7951
RVH-421 = test system: RVH-421
SkMel28 = test system: SkMel28
SkMel2 = test system: SkMel2
SkMel30 = test system: SkMel30
SkMel5 = test system: SkMel5
UACC257 = test system: UACC257
UACC62 = test system: UACC62
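Further: cell number obtained by counting DAPI-stained nuclei in high-throughput microscope images with image analysis software, screen run in 1,536-well plates.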

Structure (SMILES)	cell count (COLO792) [%]	cell count (COLO800) [%]	cell count (COLO829) [%]	cell count (G361) [%]	cell count (IPC-298) [%]	cell count (IST-MEL1) [%]	cell count (LB2518-MEL) [%]	cell count (LOXIMVI) [%]	cell count (MEL-HO) [%]	cell count (MZ2-MEL) [%]	cell count (MeWo) [%]	cell count (RPMI7951) [%]	cell count (RVH-421) [%]	cell count (SkMel28) [%]	cell count (SkMel2) [%]	cell count (SkMel30) [%]	cell count (SkMel5) [%]	cell count (UACC257) [%]	cell count (UACC62) [%]
Cc1ccc(Nc2nccc(N(C)c3ccc4c(C)n(C)nc4c3)n2)cc1S(N)(=O)=O [Pazopanib] + Oc1nc(-c2ccc(C(F)(F)F)cc2)nc2c1CSCC2 [XAV939] (first compound 0.4 µM, partner dose 2 µM)	87.9	134	91.6	88.4	84.7	96.3	90.8	89.2	90.2	69.8	103	71	101	78.8	85.4	96.6	74	74.2	88.2
O=C(/C=C/c1cccnc1)NCCCCC1CCN(C(=O)c2ccccc2)CC1 + NC(=O)Nc1cc(-c2cccc(F)c2)sc1C(=O)N[C@H]1CCCNC1 [AZD7762] (first compound 0.01 µM, partner dose 0.02 µM)	47.8	26.1	81.2	11	44	77.3	113	90	39.8	40.4	123	83.8	50.3	91.7	40.2	102	97.4	136	128
CC1(C)CCC(c2ccc(Cl)cc2)=C(CN2CCN(c3ccc(C(=O)NS(=O)(=O)c4ccc(N[C@H](CCN5CCOCC5)CSc5ccccc5)c(S(=O)(=O)C(F)(F)F)c4)cc3)CC2)C1 + OCCn1cc(-c2cnc3nnn(Cc4ccc5ncccc5c4)c3n2)cn1 [PF04217903] (first compound 0.4 µM, partner dose 1 µM)	70.8	74.6	108	82	98.8	79.7	87	65	78.2	101	73.5	66.5	98.1	89.2	98.4	70.6	72.9	87.1	96.3
CC1(C)CCC(c2ccc(Cl)cc2)=C(CN2CCN(c3ccc(C(=O)NS(=O)(=O)c4ccc(N[C@H](CCN5CCOCC5)CSc5ccccc5)c(S(=O)(=O)C(F)(F)F)c4)cc3)CC2)C1 + C=CCn1c(=O)c2cnc(Nc3ccc(N4CCN(C)CC4)cc3)nc2n1-c1cccc(C(C)(C)O)n1 [MK1775] (first compound 0.4 µM, partner dose 0.02 µM)	58.6	68.6	75.9	77.8	97.1	76.8	89.6	39.6	68.3	97.8	71.7	46.3	72	85.1	74.6	55.5	84.3	75.3	76.9
CC1(C)CCC(c2ccc(Cl)cc2)=C(CN2CCN(c3ccc(C(=O)NS(=O)(=O)c4ccc(N[C@H](CCN5CCOCC5)CSc5ccccc5)c(S(=O)(=O)C(F)(F)F)c4)cc3)CC2)C1 + NC(=O)Nc1cc(-c2cccc(F)c2)sc1C(=O)N[C@H]1CCCNC1 [AZD7762] (first compound 0.4 µM, partner dose 0.02 µM)	64.6	70	89.7	87	100	84.9	101	68.4	83.6	99.2	83.4	43	81.5	92.6	95.3	70.1	63.7	113	102
CC1(C)CCC(c2ccc(Cl)cc2)=C(CN2CCN(c3ccc(C(=O)NS(=O)(=O)c4ccc(N[C@H](CCN5CCOCC5)CSc5ccccc5)c(S(=O)(=O)C(F)(F)F)c4)cc3)CC2)C1 + CC(C)(C)c1cnc(CSc2cnc(NC(=O)C3CCNCC3)s2)o1 [SNS-032] (first compound 0.4 µM, partner dose 0.01 µM)	56.7	61.5	99.6	82.6	102	72.8	71.4	61.9	91.4	106	82.6	50.2	63.4	81	81.6	78.5	65.8	71	87.6
Cc1ccc(Nc2nccc(N(C)c3ccc4c(C)n(C)nc4c3)n2)cc1S(N)(=O)=O [Pazopanib] + CC(C)CCN1c2nc(Nc3cc(F)c(O)c(F)c3)ncc2N(C)C(=O)C1C [BID1870] (first compound 0.4 µM, partner dose 0.2 µM)	89.6	115	99.4	85.2	84	97.4	–	91.5	92	–	103	89.8	94.3	87	–	84.4	88.9	103	87.1
O=C(/C=C/c1cccnc1)NCCCCC1CCN(C(=O)c2ccccc2)CC1 + CCCCCCCCCCCC1=C(O)C(=O)C=C(O)C1=O [Embelin] (first compound 0.01 µM, partner dose 1.2 µM)	59.9	31	95.2	22.9	53.2	78.9	63.5	75.4	70.4	80.2	118	85.3	54.7	96.6	72.6	100	94.5	131	105
O=C(/C=C/c1cccnc1)NCCCCC1CCN(C(=O)c2ccccc2)CC1 + COC(=O)c1sccc1S(=O)(=O)Nc1ccc(Nc2ccccc2)cc1OC [GSK0660] (first compound 0.01 µM, partner dose 1 µM)	50.3	34.1	71.4	9.58	35	66.1	94.1	76.6	72	33.7	108	104	39.8	76.3	31.5	76.8	84.5	118	91.8
Cc1ccc(Nc2nccc(N(C)c3ccc4c(C)n(C)nc4c3)n2)cc1S(N)(=O)=O [Pazopanib] + O=C(O)c1ccc(-c2c[nH]c3ncc(-c4ccccc4)cc23)cc1C1CCCC1 [GSK650394] (first compound 0.4 µM, partner dose 0.16 µM)	108	108	93.6	104	80	88.1	–	99.9	100	–	92.8	91.4	160	84.2	95.3	88.1	92.7	110	104
O=C(/C=C/c1cccnc1)NCCCCC1CCN(C(=O)c2ccccc2)CC1 + CC1(C)NC(=O)N(c2ccc([N+](=O)[O-])c(C(F)(F)F)c2)C1=O [nilutamide] (first compound 0.01 µM, partner dose 1 µM)	59.9	25.8	66.5	7.1	41.3	68.3	80.2	44.2	34.8	46.4	92.6	102	43.8	88.7	45.2	77.6	87	103	97.5
O=C(/C=C/c1cccnc1)NCCCCC1CCN(C(=O)c2ccccc2)CC1 + COc1ccc(-c2ccc3c(N4CCOCC4)nc(N4C[C@@H](C)O[C@@H](C)C4)nc3n2)cc1CO [KU0063794] (first compound 0.01 µM, partner dose 0.02 µM)	55.1	39.9	85.3	10.8	41.5	73.9	87.7	45.3	42.7	36.7	96.8	84.1	70.5	93.4	54.3	105	98.4	102	74.5
O=C(/C=C/c1cccnc1)NCCCCC1CCN(C(=O)c2ccccc2)CC1 + CCN(CC)CCCCNc1ncc2cc(-c3cc(OC)cc(OC)c3)c(NC(=O)NC(C)(C)C)nc2n1 [PD173074] (first compound 0.01 µM, partner dose 0.1 µM)	58.5	47.1	87.1	11.8	52.6	70.5	–	108	51.9	–	100	93.2	44.4	86.3	–	106	87.7	94.2	93.5
Cc1ccc(Nc2nccc(N(C)c3ccc4c(C)n(C)nc4c3)n2)cc1S(N)(=O)=O [Pazopanib] + CO[C@@H]1[C@H](N(C)C(=O)c2ccccc2)C[C@H]2O[C@]1(C)n1c3ccccc3c3c4c(c5c6ccccc6n2c5c31)C(=O)NC4 [Midostaurin] (first compound 0.4 µM, partner dose 0.08 µM)	88	123	89.8	99.2	72.5	100	71.9	92.1	82.8	68.3	79.5	78.9	97.1	102	79.6	67.4	80.8	102	85.5
O=C(/C=C/c1cccnc1)NCCCCC1CCN(C(=O)c2ccccc2)CC1 + COc1ccc(COc2ccc(Cc3cnc(N)nc3N)cc2OC)cc1 [GW2580] (first compound 0.01 µM, partner dose 1 µM)	47.4	27.4	80.7	9.56	43.8	70.5	84	80.8	58.2	50.8	104	91.6	55.3	85.3	44.3	98.8	80.7	79	80.6
O=C(/C=C/c1cccnc1)NCCCCC1CCN(C(=O)c2ccccc2)CC1 + OCCn1cc(-c2cnc3nnn(Cc4ccc5ncccc5c4)c3n2)cn1 [PF04217903] (first compound 0.01 µM, partner dose 1 µM)	58.7	22.1	72.7	10.8	42.9	68.5	73.6	77.2	52.8	38	117	105	72.1	81.9	50.4	97.7	90.3	95.1	94.4
CC1(C)CCC(c2ccc(Cl)cc2)=C(CN2CCN(c3ccc(C(=O)NS(=O)(=O)c4ccc(N[C@H](CCN5CCOCC5)CSc5ccccc5)c(S(=O)(=O)C(F)(F)F)c4)cc3)CC2)C1 + Cn1cncc1[C@@](N)(c1ccc(Cl)cc1)c1ccc2c(c1)c(-c1cccc(Cl)c1)cc(=O)n2C [tipifarnib] (first compound 0.4 µM, partner dose 0.01 µM)	55.6	64.6	89.8	72.5	89.3	56.8	69.3	22.4	70.5	91.9	76.1	65.5	64	75.3	65	54	67.8	54.5	69.1
CC1(C)CCC(c2ccc(Cl)cc2)=C(CN2CCN(c3ccc(C(=O)NS(=O)(=O)c4ccc(N[C@H](CCN5CCOCC5)CSc5ccccc5)c(S(=O)(=O)C(F)(F)F)c4)cc3)CC2)C1 + Cn1cc(/C=C2\C(=O)Nc3cccnc32)c2ccccc21 [GW441756] (first compound 0.4 µM, partner dose 0.4 µM)	61.8	50.5	101	92.4	91.1	79.2	82.9	68	83.8	90.8	88.1	74.1	72.4	90.5	92.5	76	64.1	63.2	89.2
Cc1ccc(Nc2nccc(N(C)c3ccc4c(C)n(C)nc4c3)n2)cc1S(N)(=O)=O [Pazopanib] + Cc1ccc(NC(=O)c2cccc(N(C)C)c2)cc1NC(=O)c1ccc(O)cc1 [ZM336372] (first compound 0.4 µM, partner dose 2 µM)	114	99.3	110	109	78.3	99.4	93	67.4	99.6	77.6	98.8	89.8	118	78.2	112	91.2	81	99.7	86.2
CC1(C)CCC(c2ccc(Cl)cc2)=C(CN2CCN(c3ccc(C(=O)NS(=O)(=O)c4ccc(N[C@H](CCN5CCOCC5)CSc5ccccc5)c(S(=O)(=O)C(F)(F)F)c4)cc3)CC2)C1 + O=C(CCCCCCC(=O)Nc1ccccc1)NO [vorinostat] (first compound 0.4 µM, partner dose 0.08 µM)	66.8	50.4	114	90.4	101	81.9	106	48.7	77.6	106	75.4	77.2	65.6	79.7	92	77.6	53.5	67.7	82.9
CC1(C)CCC(c2ccc(Cl)cc2)=C(CN2CCN(c3ccc(C(=O)NS(=O)(=O)c4ccc(N[C@H](CCN5CCOCC5)CSc5ccccc5)c(S(=O)(=O)C(F)(F)F)c4)cc3)CC2)C1 + COc1ccc2c(c1)CCC1C2CCC2(C)C(NCCCCCCN3C(=O)C=CC3=O)CCC12 [U73122] (first compound 0.4 µM, partner dose 0.4 µM)	52.5	68.7	101	83.8	104	76.9	–	42.9	80.8	–	71.5	40.8	68.3	84.3	–	62.6	70.9	71.9	93.6
